{"source": "PubChem BioAssay AID504706", "about": "(National Center for Advancing Translational Sciences (NCATS), 2011)", "note": "The whole screen tested about 320,000 compounds, of which about 200 (0.062%) were called active. The shares of active, inactive and inconclusive entries below differ from those in the screen. Calls follow the shape of the dose curve; as a rule, active = well fitted activation curve with a large enough effect; inconclusive = small, poorly fitted or top-dose-only effect; inactive = no such curve, though single readings can be large or run the other way. Potencies of inconclusive entries are left out as doubtful fits. Potency is read from the fitted curve at half-maximal effect; tags tell the direction and shape of the fitted curve."}
{"experiment": "qHTS assay for re-activators of p53 using a Luc reporter; also: nearly all actives have a fitted effect of over 45% in size", "conditions": "H1299 p53-A138V BP100-luciferase reporter, luminescence, 24 h; series mostly up to 92.2 µM", "summary_of_the_method": "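H1299 (p53-null), stable ts p53-A138V + BP100-Luc; 1000 cells/well, Opti-MEM/10% FBS; cpd 4 pt, 1:5; 24 h, 37 deg C, 5% CO2; detection reagent 10 min RT; luminescence.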"}
{"smiles": "COc1ccc(N2CCN(C(=O)c3ccccc3N(C)S(=O)(=O)c3ccccc3)CC2)cc1", "Potency": "inactive"}
{"smiles": "CCOc1ccc(Nc2nc(N)nc(CCl)n2)cc1", "Potency": "inactive"}
{"smiles": "C/C(=C\\c1ccccc1)C(=O)Nc1ccc(Cl)cn1", "Potency": "inactive"}
{"smiles": "Cn1cc(Cl)c(C(=O)N/N=C/c2ccc3c4c(cccc24)CC3)n1", "Potency": "inconclusive [activator, partial curve, poor fit]"}
{"smiles": "Cc1cccc(Cc2nnc(CCC(=O)N(C)Cc3ccncc3C)o2)c1", "Potency": "inactive"}
{"smiles": "O=C(NC1CCCC1)c1cc(-c2ccccc2Cl)on1", "Potency": "inconclusive [activator, full curve, poor fit]"}
{"smiles": "CCCCCCOc1ccc(NC(=O)CC2C(=O)N(CC)C(=S)N2Cc2ccco2)cc1", "note": "(centres undefined)", "Potency": "inactive"}
{"smiles": "C/C(=N\\NC(=S)Nc1ccc(C)cc1)c1cccc(N)c1", "Potency": "inconclusive [activator, full curve, poor fit]"}
{"smiles": "CCCCn1c(N)c(N(CC(C)C)C(=O)c2ccc([N+](=O)[O-])o2)c(=O)[nH]c1=O", "Potency": "inconclusive [activator, full curve]"}
{"smiles": "O=c1oc2ccccc2c(Nc2cc3ccccc3cc2O)c1[N+](=O)[O-]", "Potency": "inconclusive [activator, full curve, poor fit]"}
{"smiles": "CC(=O)Nc1ccc2nc(-c3ccco3)[nH]c2c1", "Potency": "inconclusive [activator, partial curve, poor fit]"}
{"smiles": "Cc1cc(-c2n[nH]c(=S)n2/N=C/C(Cl)=C/c2ccccc2)n[nH]1", "Potency": "inconclusive [activator, partial curve, poor fit]"}
{"smiles": "C=CCNC(=O)COc1ccc(Br)cc1Cl", "Potency": "inconclusive [activator, partial curve, poor fit]"}
{"smiles": "O=C1/C(=C/c2ccco2)CCC1C1CCCC1", "note": "(centres undefined)", "Potency": "inconclusive [activator, single point]"}
{"smiles": "Fc1ccc(-c2csc(N3CCSCC3)n2)cc1", "Potency": "inconclusive [activator, partial curve, poor fit]"}
{"smiles": "CC1CN(CC(=O)NCc2ccccc2)CC(C)O1", "note": "(centres undefined)", "Potency": "inconclusive [activator, single point]"}
{"smiles": "Cc1cc(CC(C)C)n(-c2nc3ccccc3c(=O)n2OCC(N)=O)n1", "Potency": "inconclusive [activator, partial curve, poor fit]"}
{"smiles": "Cc1nn(Cc2ccccc2)c(C)c1CNC(=O)CN=C1NS(=O)(=O)c2ccccc21", "Potency": "inactive"}
{"smiles": "CCc1ccc(NC(=O)CSc2nncn2-c2cccnc2)cc1", "Potency": "inconclusive [activator, partial curve]"}
{"smiles": "O=C(Nc1ccc2oc(-c3ccccc3F)nc2c1)c1cncc(Br)c1", "Potency": "inconclusive [activator, single point]"}
{"smiles": "Cc1ccc2[nH]c(-c3cccc(F)c3)cc(=O)c2c1", "Potency": "inconclusive [activator, partial curve, poor fit]"}
{"smiles": "O=C(c1c(F)cccc1F)N1CCCC(c2nc(-c3cccs3)no2)C1", "note": "(centres undefined)", "Potency": "inconclusive [activator, full curve, poor fit]"}
{"smiles": "COc1cc(NC(=O)CCC(=O)OCCCC(F)(F)C(F)(F)F)nc(OC)n1", "Potency": "inactive"}
{"smiles": "Cn1c(CNc2ccc(F)cc2)nc2ccccc21", "Potency": "inconclusive [activator, full curve, poor fit]"}
{"smiles": "O=C1OC(c2ccc(Cl)cc2)/C(=C(/O)c2ccccc2)C1=O", "note": "(centres undefined)", "Potency": "inconclusive [activator, single point]"}
{"smiles": "Cc1nn(-c2ccccc2)c(C)c1C(=O)OCC(=O)Nc1ccccc1", "Potency": "inconclusive [activator, full curve, poor fit]"}
{"smiles": "CN(C)/C=C(\\C(=O)c1cccc(Cl)c1)c1nnnn1-c1ccccc1", "Potency": "inactive"}
{"smiles": "CCOC(=O)c1ccc(NC(=O)CN2C(=O)CSCC2=O)cc1", "Potency": "inactive"}
{"smiles": "O=C(Nc1cccnc1)c1ccc(-c2cc(Cl)ccc2Cl)o1", "Potency": "inactive"}
{"smiles": "O=C1CC(c2cc(Br)ccc2F)c2cc3c(cc2N1)CCC3", "note": "(centres undefined)", "Potency": "inconclusive [activator, partial curve, poor fit]"}
{"smiles": "CCOC(=O)C1CSC(CC(=O)Nc2ccc(Cl)cc2)C(=O)N1", "note": "(centres undefined)", "Potency": "inconclusive [activator, full curve, poor fit]"}
{"smiles": "COc1ccc2c(c1)Cc1sc(NC(=O)c3cccs3)nc1-2", "Potency": "inconclusive [activator, full curve, poor fit]"}
{"smiles": "Cc1cc(Br)cc(C)c1NC(=S)NC(=O)CC(C)C", "Potency": "inactive"}
{"smiles": "Cc1[nH]c2ccccc2c1CCNC(=O)c1ccc2nccnc2c1", "Potency": "inconclusive [activator, single point]"}
{"smiles": "O=C(CSc1ccc(-c2ccccc2)nn1)c1cccs1", "Potency": "inactive"}
{"smiles": "COc1ccc(Nc2nc(N)nc(CSc3nncn3C)n2)cc1", "Potency": "inconclusive [activator, partial curve, poor fit]"}
{"smiles": "CCN(CCn1cccn1)C(=O)c1cc(COc2ccc(F)c(F)c2)on1", "Potency": "inconclusive [activator, partial curve]"}
{"smiles": "CC1CCN(C(=S)c2ccc(-c3ccc(Cl)cc3Cl)o2)CC1", "Potency": "inconclusive [activator, partial curve, poor fit]"}
{"smiles": "O=C(CSc1nc(-c2ccccc2Cl)ns1)Nc1ccc2c(c1)OCO2", "Potency": "inconclusive [activator, single point]"}
{"smiles": "O=C(O)C(Cc1ccccc1)n1cnnn1", "note": "(centres undefined)", "Potency": "inconclusive [activator, single point]"}
{"smiles": "CC(=O)Nc1ccc(NC(=O)c2ccc(COc3ccccc3)cc2)cc1", "Potency": "inconclusive [activator, single point]"}
{"smiles": "c1ccc(CNc2ncnc3c2oc2ccccc23)nc1", "Potency": "inconclusive [activator, full curve, poor fit]"}
{"smiles": "Cc1cccc(CCNc2nc3ccc(C)cc3n3cnnc23)c1", "Potency": "inconclusive [activator, full curve, poor fit]"}
{"smiles": "FC(F)(F)c1cccc(N/N=C/c2ccccc2)c1", "Potency": "inconclusive [activator, partial curve, poor fit]"}
